# Laboratory results as given in PubChem BioAssay (Tox21).
# “And” between values parts separate entries of the source, which are not always exact repeats. Identical values can stand only once. This list was built around the results that the source calls inconclusive (neither active nor inactive); the mix of calls is not that of the screen. For some of these results: A potency beside an inconclusive call is a rough fit, not a confirmed value. The source made the active and inactive calls. Unless noted, calls follow the shape of the dose curve; as a rule, active = well fitted curve in the direction sought with a large enough effect in the repeat runs; inconclusive = weak or mixed curves; inactive = no such curve, though single readings can be large; an effect the other way counts as inactive or inconclusive.
# Assays:
# [1] = qHTS assay to identify small molecule antagonists of the sonic hedgehog signaling (Shh) pathway - cell viability counter screen (AID 1259367); also: nearly all actives have a fitted effect of over 55% in size
# How it was run: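 Fluorescence read-out (CellTiter-Fluor, 1 hr at 37C) taken after 23 hr compound treatment of 3T3 Gli1-Luc cells stimulated with conditioned medium. Cells were seeded at 2,000 per well and pre-incubated 4 hr.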
# [2] = biological target: Estrogen receptor beta (Homo sapiens) (UniProt Q92731); assay: qHTS assay to identify small molecule agonists of the estrogen receptor beta (ER-beta) signaling pathway (AID 1259377; active = well fitted activation curve with a large enough effect in the signal ratio in the repeat runs, not every such curve was filed as active; inconclusive = weak or mixed curves, or effect the other way; the % refers to the signal ratio; as to activation: % is scaled to controls: 0 for no effect and ±100 for the full control effect); settings: ER-beta-UAS-bla HEK293T, beta-lactamase FRET ratio, 16 h; activation: at 92.4 µM (top of the series) unless noted
# How it was run: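 ER-beta-UAS-bla HEK293T cells in medium with 2% charcoal-stripped FBS were exposed to compounds for 16 h at 37C. Beta-lactamase reporter activity was read as fluorescence after 2 h with LiveBLAzer B/G FRET substrate at room temperature.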
# [3] = biological target: Progesterone receptor (Homo sapiens) (UniProt P06401); assay: qHTS assay to identify small molecule antagonists of the progesterone receptor (PR) signaling pathway (AID 1346795; active = well fitted inhibition curve with a large enough effect in the signal ratio in the repeat runs, not every such curve was filed as active; inconclusive = weak or mixed curves; the % refers to the signal ratio; as to activity change, negative = inhibition: % is scaled to controls: 0 for no effect and ±100 for the full control effect); settings: PR-UAS-bla HEK293T, beta-lactamase FRET ratio, 16 h; activity change, negative = inhibition: at 92.4 µM (top of the series) unless noted
# How it was run: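 PR-UAS-bla HEK293T cells with beta-lactamase reporter under UAS control, in 2% charcoal-stripped FBS, treated with compounds plus 1 nM promegestone (R5020, final) for 16 hr at 37C. Read-out: FRET beta-lactamase substrate fluorescence after 2 hr at room temperature.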
# [4] = qHTS assay to identify small molecule agonists of the androgen receptor (AR) signaling pathway in the presence of an antagonist - cell viability counter screen (AID 1259379); also: nearly all actives have a fitted effect of over 25% in size
# How it was run: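 Viability counter screen: CellTiter-Fluor fluorescence, measured in the same wells as the luciferase read-out. MDA-kb2 cells, 3,000/well, with nilutamide at 3.0uM final and compounds at 15 concentrations, 16 hr at 37C, 0% CO2.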
# [5] = qHTS assay to identify small molecule agonists of the estrogen receptor beta (ER-beta) signaling pathway - cell viability counter screen (AID 1259380); also: nearly all actives have a fitted effect of over 30% in size
# How it was run: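 Luminescence read-out (CellTiter-Glo, 30 min, room temp) taken in the same wells as the beta-lactamase reporter assay; ER-beta-UAS-bla HEK293T cells exposed to DMSO-dissolved compounds for 16 hr at 37C in 2% charcoal-stripped FBS medium.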
# [6] = biological target: Progesterone receptor (Homo sapiens) (UniProt P06401); assay: qHTS assay to identify small molecule agonists of the progesterone receptor (PR) signaling pathway (AID 1346784; calls by dose curve; also: nearly all actives have a fitted effect of over 30% in size); settings: PR-UAS-bla HEK293T, beta-lactamase FRET ratio, 16 h; activation: at 92.4 µM (top of the series) unless noted
# How it was run: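 PR-UAS-bla HEK 293T cells (beta-lactamase reporter under UAS) in 2% charcoal-stripped FBS, dosed with 23 nL compound after 6 hr, incubated 16hr at 37C. LiveBLAzer B/G FRET substrate added, fluorescence read after 2 hours.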
# [7] = qHTS assay to identify small molecule agonists of the progesterone receptor (PR) signaling pathway - cell viability counter screen (AID 1346799; calls by dose curve; also: nearly all actives have a fitted effect of over 45% in size)
# How it was run: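 Counter screen in the PR-UAS-bla HEK293T wells (2% charcoal-stripped FBS, 16 h compound exposure at 37 C) after the bla read. CellTiter-Glo added, 30 min at room temperature, luminescence read as cell viability.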
# [8] = biological target: Thyrotropin receptor (Homo sapiens) (UniProt P16473); assay: qHTS assay to identify small molecule antagonists of the thyroid stimulating hormone receptor (TSHR) signaling pathway (AID 1259385; calls by dose curve; also: nearly all actives have a fitted effect of over 20% in size; as to activity change, negative = inhibition: % is scaled to controls: 0 for no effect and ±100 for the full control effect); settings: TSHR-HEK293 cAMP HTRF, TSH-stimulated antagonist mode; activity change, negative = inhibition: at 92.4 µM (top of the series) unless noted
# How it was run: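 TSHR-HEK293 cells (800/well) plated 18 h, then compounds with Ro20-1724 and TSH at 1.5 ng/mL final, 30 min at room temperature. cAMP quantified by HTRF (cAMP-d2/anti-cAMP-cryptate, 1 h); 15 concentrations in triplicate.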
# [9] = biological target: Estrogen receptor beta (Homo sapiens) (UniProt Q92731); assay: qHTS assay to identify small molecule antagonists of the estrogen receptor beta (ER-beta) signaling pathway (AID 1259378; active = well fitted inhibition curve with a large enough effect in the signal ratio in the repeat runs, not every such curve was filed as active; inconclusive = weak or mixed curves, or effect the other way; inactive = no such curve, though single readings can be large or run the other way; the % refers to the signal ratio; as to activity, negative = inhibition: % is scaled to controls: 0 for no effect and ±100 for the full control effect); settings: ER-beta-UAS-bla HEK293T, beta-lactamase FRET ratio, 16 h; activity, negative = inhibition: at 92.4 µM (top of the series) unless noted
# How it was run: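 ER-beta-UAS-bla HEK293T cells in 2% charcoal-stripped FBS medium treated with compound plus 1nM final 17-beta-estradiol for 16 hr at 37C. Beta-lactamase reporter read by FRET substrate fluorescence after 2 hours at room temperature.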
# [10] = qHTS assay to identify small molecule antagonists of the progesterone receptor (PR) signaling pathway - cell viability counter screen (AID 1346798); also: nearly all actives have a fitted effect of over 50% in size
# How it was run: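 PR-UAS-bla HEK293T cells, 3,000/well in 2% charcoal-stripped FBS medium, dosed with compounds plus R5020 agonist and incubated 16 h at 37C. Viability then measured in the same wells by CellTiter-Glo luminescence after 30 min at RT.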
# [11] = qHTS assay to identify small molecule antagonists of the estrogen receptor beta (ER-beta) signaling pathway - cell viability counter screen (AID 1259382); also: nearly all actives have a fitted effect of over 55% in size
# How it was run: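 Luminescent ATP read-out (CellTiter-Glo, 30 min, RT) taken in the same wells as the bla reporter assay. HEK293T ER-beta-UAS-bla cells in 2% charcoal-stripped FBS were exposed to compounds with 1nM E2 for 16 hr at 37C.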
# [12] = qHTS assay to identify small molecule antagonists of the sonic hedgehog signaling (Shh) pathway (AID 1259369; calls by dose curve; also: nearly all actives have a fitted effect of over 45% in size)
# How it was run: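 Luminescence readout: firefly Luc under Gli1 response element in 3T3Gli1-Luc cells (NIH/3T3 clone). Antagonist mode, stimulation by conditioned medium; compound exposure 24hr at 37 C, 5% CO2.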
# [13] = qHTS assay to identify small molecule agonists of the estrogen receptor alpha (ER-alpha) signaling pathway in the presence of an antagonist - cell viability counter screen (AID 1259386);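 also: cells exposed to compounds for 22 h at 37 °C before the viability read; nearly all actives have a fitted effect of over 30% in size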
# How it was run: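 Read-out: CellTiter-Fluor fluorescence after 1hr reagent incubation, measured in the same wells as the luciferase readout. VM7Luc4E2 cells were exposed to 15 compound concentrations with 10.0nM ICI-182,780 for 22hr at 37C.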
# [14] = qHTS assay to identify small molecule antagonists of the TGF-beta/Smad signaling pathway - cell viability counter screen (AID 1346824); also: nearly all actives have a fitted effect of over 50% in size
# How it was run: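 SBE-bla HEK 293T cells, incubated overnight, then compound plus 0.25 ng/mL TGF-beta1 (stock added) for 5 hr at 37 C. Viability was read in the same wells by CellTiter-Glo luminescence after 30 min at room temperature.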
# Potency is read from the fitted curve at half-maximal effect; tags tell the direction and shape of the fitted curve or compound fluorescence and quenching.
# Chain of UniProt P06401 (P06401 whole entry, looked up): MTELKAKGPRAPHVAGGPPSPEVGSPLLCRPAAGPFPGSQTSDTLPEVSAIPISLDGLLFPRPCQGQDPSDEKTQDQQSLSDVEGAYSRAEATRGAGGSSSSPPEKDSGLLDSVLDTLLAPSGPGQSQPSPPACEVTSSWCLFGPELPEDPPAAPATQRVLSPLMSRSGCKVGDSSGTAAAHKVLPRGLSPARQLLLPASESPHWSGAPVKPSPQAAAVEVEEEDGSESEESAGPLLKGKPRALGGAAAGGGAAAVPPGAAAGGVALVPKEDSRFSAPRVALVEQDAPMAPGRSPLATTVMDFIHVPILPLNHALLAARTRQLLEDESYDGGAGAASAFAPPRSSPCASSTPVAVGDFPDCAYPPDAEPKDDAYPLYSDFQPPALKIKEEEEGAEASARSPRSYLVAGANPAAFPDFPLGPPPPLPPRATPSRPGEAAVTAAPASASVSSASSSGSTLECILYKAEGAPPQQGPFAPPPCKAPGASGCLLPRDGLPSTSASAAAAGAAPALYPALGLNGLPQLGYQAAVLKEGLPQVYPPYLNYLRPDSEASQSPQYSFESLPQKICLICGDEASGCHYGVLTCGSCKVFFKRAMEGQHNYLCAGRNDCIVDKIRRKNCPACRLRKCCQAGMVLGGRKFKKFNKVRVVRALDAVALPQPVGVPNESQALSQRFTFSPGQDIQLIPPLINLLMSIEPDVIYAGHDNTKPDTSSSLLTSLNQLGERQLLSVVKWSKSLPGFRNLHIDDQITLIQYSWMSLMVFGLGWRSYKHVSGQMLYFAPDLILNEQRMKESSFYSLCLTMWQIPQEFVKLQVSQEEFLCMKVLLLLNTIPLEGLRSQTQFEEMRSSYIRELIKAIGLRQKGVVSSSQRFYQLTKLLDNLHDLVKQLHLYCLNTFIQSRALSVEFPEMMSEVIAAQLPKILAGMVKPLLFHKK
# Chain of UniProt Q92731 (Q92731 whole entry, looked up): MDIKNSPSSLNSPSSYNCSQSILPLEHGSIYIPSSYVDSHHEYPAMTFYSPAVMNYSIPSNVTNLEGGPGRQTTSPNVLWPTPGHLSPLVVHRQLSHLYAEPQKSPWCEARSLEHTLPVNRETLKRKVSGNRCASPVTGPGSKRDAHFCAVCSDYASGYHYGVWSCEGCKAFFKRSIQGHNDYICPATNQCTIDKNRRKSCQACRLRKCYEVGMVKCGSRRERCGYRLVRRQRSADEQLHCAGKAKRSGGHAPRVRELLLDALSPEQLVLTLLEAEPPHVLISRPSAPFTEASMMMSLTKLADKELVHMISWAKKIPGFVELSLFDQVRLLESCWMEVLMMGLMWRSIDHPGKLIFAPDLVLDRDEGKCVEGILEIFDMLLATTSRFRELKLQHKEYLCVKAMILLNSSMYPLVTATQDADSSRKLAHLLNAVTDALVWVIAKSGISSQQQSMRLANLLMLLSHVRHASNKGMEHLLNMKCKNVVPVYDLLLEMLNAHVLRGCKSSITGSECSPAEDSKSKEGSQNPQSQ
# Chain of UniProt P16473 (P16473 whole entry, looked up): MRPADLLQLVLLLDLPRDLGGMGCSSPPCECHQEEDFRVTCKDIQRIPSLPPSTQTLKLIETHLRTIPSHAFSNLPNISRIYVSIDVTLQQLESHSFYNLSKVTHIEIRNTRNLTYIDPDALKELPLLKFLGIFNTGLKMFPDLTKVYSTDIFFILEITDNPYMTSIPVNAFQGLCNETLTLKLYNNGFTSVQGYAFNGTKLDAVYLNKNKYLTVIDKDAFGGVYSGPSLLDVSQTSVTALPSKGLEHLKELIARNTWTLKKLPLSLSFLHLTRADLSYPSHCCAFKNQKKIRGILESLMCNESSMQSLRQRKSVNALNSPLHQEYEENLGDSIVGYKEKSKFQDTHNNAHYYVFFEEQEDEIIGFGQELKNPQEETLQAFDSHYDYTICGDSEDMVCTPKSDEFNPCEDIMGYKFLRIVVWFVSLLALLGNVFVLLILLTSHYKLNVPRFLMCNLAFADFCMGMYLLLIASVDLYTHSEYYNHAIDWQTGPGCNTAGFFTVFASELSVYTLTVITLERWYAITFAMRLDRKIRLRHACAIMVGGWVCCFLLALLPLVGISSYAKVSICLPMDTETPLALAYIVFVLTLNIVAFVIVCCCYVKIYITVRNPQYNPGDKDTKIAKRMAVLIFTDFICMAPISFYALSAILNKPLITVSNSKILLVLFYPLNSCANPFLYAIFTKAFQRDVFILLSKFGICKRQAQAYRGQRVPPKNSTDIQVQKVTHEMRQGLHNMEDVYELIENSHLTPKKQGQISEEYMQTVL
smiles,measurement,setting,value
NC(=O)C(Cl)(Cl)Cl,Potency,[1],"inconclusive: 68.9 µM [cytotoxic, single point]"
same,activation,[2],inconclusive: 8.24%
same,Potency,[3],inactive
CC(c1ccccc1)(c1ccc(O)cc1)c1ccc(O)cc1,Potency,[1],"inconclusive: 54.5 µM [cytotoxic, partial curve]"
same,Potency,[4],"inconclusive: 61.1 µM [cytotoxic, partial curve]"
same,Potency,[5],active: 54.5 µM
same,Potency,[6],"inconclusive: 61.1 µM [cytotoxic, single point]"
same,Potency,[3],inconclusive: 13.7 µM
same,Potency,[7],"inconclusive: 19.3 µM [rising, partial curve]"
CC1C=[C-]C=C1.[C-]#[O+].[C-]#[O+].[C-]#[O+].[Mn],Potency,[1],inactive
same,Potency,[2],inactive
same,Potency,[8],inactive
CCN(CC)C(=O)N[C@@H]1C=C2c3cccc4[nH]cc(c34)C[C@@H]2N(C)C1,Potency,[1],"inconclusive: 26.6 µM [cytotoxic, partial curve, poor fit]"
same,Potency,[5],inactive
COP(=S)(OC)Oc1cc(Cl)c(I)cc1Cl,Potency,[1],"inconclusive: 54.5 µM [cytotoxic, partial curve]"
same,Potency,[9],"inconclusive: 24.3 µM [rising, partial curve]"
same,Potency,[5],"inconclusive: 38.6 µM [cytotoxic, partial curve, poor fit]"
same,Potency,[6],"inconclusive: 48.6 µM [falling, partial curve]"
same,Potency,[3],active: 21.7 µM
same,Potency,[10],"inconclusive: 19.3 µM [rising, partial curve, poor fit]"
same,Potency,[7],"inconclusive: 54.5 µM [rising, partial curve]"
C#CCC1=C(C)C(OC(=O)C2C(C=C(C)C)C2(C)C)CC1=O (stereo unspecified),Potency,[1],"inconclusive: 68.1 µM [cytotoxic, partial curve, poor fit]"
same,Potency,[9],active: 60.7 µM
same,Potency,[5],"inconclusive: 27.1 µM [cytotoxic, single point]"
same,Potency,[11],inactive
same,Potency,[3],inconclusive: 60.7 µM [partial curve]
same,Potency,[10],"inconclusive: 76.4 µM [cytotoxic, single point]"
same,Potency,[7],"inconclusive: 27.1 µM [partial curve, poor fit]"
CCn1cc[n+](C)c1C,Potency,[12],"inconclusive: 69.6 µM [inhibitor, single point]"
Clc1ccc(C2(Cn3cncn3)OCCO2)c(Cl)c1,Potency,[1],inactive
same,"activity change, negative = inhibition",[3],inconclusive: -46.3%
same,Potency,[10],"inconclusive: 61.1 µM [rising, single point]"
same,Potency,[7],"inconclusive: 6.11 µM [cytotoxic, single point]"
Cc1cccc(N=Nc2ccc(N(C)C)cc2)c1,Potency,[1],"inconclusive: 12.4 µM [cytotoxic, full curve] and inconclusive: 61.1 µM [cytotoxic, single point]"
same,Potency,[5],"inconclusive: 27.3 µM [cytotoxic, full curve]"
same,Potency,[8],"inconclusive: 78.3 µM [falling, partial curve]"
same,Potency,[13],active: 24.8 µM and active: 24.3 µM
same,Potency,[7],inconclusive: 24.3 µM
CC(C)c1c(CN(C)C(C)Cc2ccccc2)n(C)n(-c2ccccc2)c1=O (stereo unspecified),Potency,[1],inactive
same,Potency,[9],active: 21.1 µM
same,Potency,[4],inactive
same,Potency,[3],"inconclusive: 6.68 µM [rising, full curve, poor fit]"
same,Potency,[10],"inconclusive: 16.8 µM [cytotoxic, full curve, poor fit]"
same,Potency,[7],"inconclusive: 4.73 µM [cytotoxic, partial curve]"
O=C1NCN(c2ccccc2)C12CCN(CC1COc3ccccc3O1)CC2 (stereo unspecified),Potency,[1],"inconclusive: 21.1 µM [cytotoxic, partial curve]"
same,Potency,[4],"inconclusive: 29.8 µM [cytotoxic, partial curve]"
same,Potency,[11],inconclusive: 21.1 µM [cytotoxic]
same,Potency,[13],inconclusive: 33.5 µM [cytotoxic]
same,Potency,[10],inactive
O=c1n(Cl)c(=O)n(Cl)c(=O)n1Cl,Potency,[1],inactive
same,Potency,[3],inactive
same,Potency,[14],"inconclusive: 1.95 µM [cytotoxic, single point]"
CC(C)(C1CCC(O)CC1)C1CCC(O)CC1 (stereo unspecified),Potency,[1],inactive
same,Potency,[2],active: 21.7 µM
same,Potency,[3],active: 27.3 µM
same,Potency,[10],"inconclusive: 1.72 µM [cytotoxic, single point]"
CCCCCCCCC(=O)NCc1ccc(O)c(OC)c1,Potency,[1],"inconclusive: 68.6 µM [cytotoxic, single point]"
same,Potency,[9],"inconclusive: 13.3 µM [fluorescent, full curve]"
same,"activity, negative = inhibition",[9],inconclusive: -38.5%
same,Potency,[13],inactive
same,Potency,[3],active: 48.6 µM and inconclusive: 26.6 µM
